Source: PubChem BioAssay AID1159614 (National Center for Advancing Translational Sciences (NCATS), 2016)
Among all 45,000 compounds or so, about 65 (0.1%) were called active. Calls follow the shape of the dose curve; as a rule, active = well fitted activation curve with a large enough effect; inconclusive = small, poorly fitted or top-dose-only effect; inactive = no such curve, though single readings can be large or run the other way. The list shows a part of the results.

What follows are compounds tested against Galactocerebrosidase (Homo sapiens) (UniProt P54803) (assay: A Novel Cell-Based Assay to Identify Small Molecules for B -Galactocerebrosidase). Conditions: 145M-Twi-hGALC-G270D cells (Twitcher mouse brain line with human GALC G270D), HMU-beta-Gal fluorescence, 48 h; series mostly up to 57.5 µM; activation: at the top concentration.
Chain of UniProt P54803 (P54803 whole entry, looked up): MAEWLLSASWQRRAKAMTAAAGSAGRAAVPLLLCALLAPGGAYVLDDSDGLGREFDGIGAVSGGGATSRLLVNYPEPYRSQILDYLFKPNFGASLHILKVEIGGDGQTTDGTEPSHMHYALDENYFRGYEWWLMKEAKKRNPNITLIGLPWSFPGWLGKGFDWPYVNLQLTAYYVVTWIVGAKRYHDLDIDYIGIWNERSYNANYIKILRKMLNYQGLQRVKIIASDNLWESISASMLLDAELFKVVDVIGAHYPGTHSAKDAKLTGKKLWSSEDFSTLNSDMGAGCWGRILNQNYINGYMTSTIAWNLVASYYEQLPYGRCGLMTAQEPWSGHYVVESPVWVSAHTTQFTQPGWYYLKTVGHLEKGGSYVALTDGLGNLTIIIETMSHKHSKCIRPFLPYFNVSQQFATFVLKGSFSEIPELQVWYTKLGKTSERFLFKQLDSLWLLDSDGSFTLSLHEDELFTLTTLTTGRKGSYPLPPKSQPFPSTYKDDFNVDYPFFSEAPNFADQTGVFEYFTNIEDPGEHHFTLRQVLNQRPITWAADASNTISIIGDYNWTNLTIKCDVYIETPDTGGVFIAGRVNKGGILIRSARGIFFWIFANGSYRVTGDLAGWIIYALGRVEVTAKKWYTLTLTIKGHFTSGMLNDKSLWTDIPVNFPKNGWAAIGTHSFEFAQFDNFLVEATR
In short: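 Brain-derived Twitcher mouse 145M-Twi cells stably expressing human GALC-G270D or wild-type GALC, treated live, then residual GALC activity read by fluorescence of HMU-b-Gal substrate (0.1 mM final) in citrate-phosphate buffer pH 5.2 with sodium taurocholate. Signal increase indicates enhancement.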
Also: 0% is about no effect; nearly all actives have a fitted effect of over 65% in size.

activation, inactive:
Cn1ncc2c(NCc3cccc(Cl)c3)ncnc21 -7.92%, COc1cc(Cl)c(C)cc1NC(=O)CSc1cc(=O)n(C)c2cc(Cl)ccc12 -25.5%, CCN(CC)S(=O)(=O)c1ccc2c(c1)N(CC(=O)NCc1ccccc1)C(=O)CS2 -1.74%, CN(C)c1ccc(C(CNC(=O)COc2ccccc2)N2CCOCC2)cc1 (stereo not drawn) -17.8%, NC(=O)CSc1ncc2c(n1)-c1ccccc1N(Cc1ccccc1)S2(=O)=O -9.19%, COc1ccc(NC(=O)c2cccc(N3CCCS3(=O)=O)c2)cc1 0.647%, Cc1c(Cl)cccc1NC(=O)N1CCN(Cc2cc(=O)n3nc(-c4ccccc4F)sc3n2)CC1 -8.58%, Cc1nn(C)c2c1c(-c1ccccc1)cc(=O)n2Cc1ccccc1F -11.7%, Cc1ccc(-c2noc(CCC(=O)Nc3ccc(F)cc3Cl)n2)cc1 -30.7%, COc1cccc(CNC(=O)Cn2c(=O)c3cccn3c3ccc(F)cc32)c1OC 3.67%, Cc1ccccc1CNC(=O)C(=O)NCC(c1ccco1)S(=O)(=O)c1ccc(F)cc1 (stereo not drawn) -5.39%, COc1ccc(NS(=O)(=O)c2ccc3c(c2)CCN3C(=O)C2CC2)cc1OC -22.3%, Cc1cc(C)c2c(=O)cc(C(=O)NCCc3ccc(S(N)(=O)=O)cc3)oc2c1 -15.6%, COC(=O)c1sccc1S(=O)(=O)N(CC(=O)Nc1ccc(C)cc1)c1ccccc1 -9.16%, COc1cccc2cc(-c3nnc(Nc4ccccc4C)s3)c(=O)oc12 -11%, COc1ccccc1N1CCN(C(=O)CCn2cnc3onc(-c4ccc(F)cc4)c3c2=O)CC1 -19.1%, Cc1cccc(NC(=O)CSc2nnc(-c3cccs3)o2)c1 1.89%, Cc1cccc(NC(=O)C(c2ccccc2)N2Cc3ccccc3C2=O)c1C (stereo not drawn) -4.25%, Cc1noc2ncnc(Nc3ccc(F)cc3)c12 -12.2%, Cn1ncc(C(=O)N2CCN(c3ccccc3)CC2)c1C1CCN(C(=O)OC(C)(C)C)CC1 1.15%, O=C(O)CCCc1ccccc1 -15.7%, CCOc1ccc(-c2cc3nc(C4CCN(C(=O)OC(C)(C)C)CC4)c(C(=O)Nc4ccc(C(=O)OC)cc4)cn3n2)cc1 -5.96%, Cc1ccc(CCNC(=O)NCc2noc3ccc(C)cc23)cc1 -12.2%, Cc1cc(F)ccc1NC(=O)C1CCCN(c2nnc(-n3c(C)ccc3C)s2)C1 (stereo not drawn) -11.1%, COc1ccc(NC(=O)Cn2c(=O)nc(-c3ccccc3)c3ccccc32)cc1OC -3.27%, Cc1cc(C)cc(N2C(=O)CS(=O)(=O)C23C(=O)N(Cc2ccc(F)cc2)c2ccc(C)cc23)c1 (stereo not drawn) -27.9%, CSc1ccc(CCNC(=O)C(C)n2nc(C)c3c(C)n(-c4ccccc4)nc3c2=O)cc1 (stereo not drawn) -16%, Cc1cc(C)n2nc(CNC(=O)c3cccc(Cl)c3)nc2n1 -18.9%
